# Laboratory results published in article PMC4336329 (PLoS ONE, 2015).
# Out of some 310,000 compounds screened, about 14,000 (4.5%) showed an effect of 50% or more. The effect is printed as a negative number. Some of the results follow.
# Molecular target: human ether-à-go-go-related gene (hERG) potassium channel (human, UniProt Q12809)
# Test: primary screen, population patch clamp on CHO cells stably expressing hERG
# 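Also: peak tail current of the secondary pulse compared with the same well before compound.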
# human ether-à-go-go-related gene (hERG) potassium channel, sequence (Q12809 whole entry, looked up): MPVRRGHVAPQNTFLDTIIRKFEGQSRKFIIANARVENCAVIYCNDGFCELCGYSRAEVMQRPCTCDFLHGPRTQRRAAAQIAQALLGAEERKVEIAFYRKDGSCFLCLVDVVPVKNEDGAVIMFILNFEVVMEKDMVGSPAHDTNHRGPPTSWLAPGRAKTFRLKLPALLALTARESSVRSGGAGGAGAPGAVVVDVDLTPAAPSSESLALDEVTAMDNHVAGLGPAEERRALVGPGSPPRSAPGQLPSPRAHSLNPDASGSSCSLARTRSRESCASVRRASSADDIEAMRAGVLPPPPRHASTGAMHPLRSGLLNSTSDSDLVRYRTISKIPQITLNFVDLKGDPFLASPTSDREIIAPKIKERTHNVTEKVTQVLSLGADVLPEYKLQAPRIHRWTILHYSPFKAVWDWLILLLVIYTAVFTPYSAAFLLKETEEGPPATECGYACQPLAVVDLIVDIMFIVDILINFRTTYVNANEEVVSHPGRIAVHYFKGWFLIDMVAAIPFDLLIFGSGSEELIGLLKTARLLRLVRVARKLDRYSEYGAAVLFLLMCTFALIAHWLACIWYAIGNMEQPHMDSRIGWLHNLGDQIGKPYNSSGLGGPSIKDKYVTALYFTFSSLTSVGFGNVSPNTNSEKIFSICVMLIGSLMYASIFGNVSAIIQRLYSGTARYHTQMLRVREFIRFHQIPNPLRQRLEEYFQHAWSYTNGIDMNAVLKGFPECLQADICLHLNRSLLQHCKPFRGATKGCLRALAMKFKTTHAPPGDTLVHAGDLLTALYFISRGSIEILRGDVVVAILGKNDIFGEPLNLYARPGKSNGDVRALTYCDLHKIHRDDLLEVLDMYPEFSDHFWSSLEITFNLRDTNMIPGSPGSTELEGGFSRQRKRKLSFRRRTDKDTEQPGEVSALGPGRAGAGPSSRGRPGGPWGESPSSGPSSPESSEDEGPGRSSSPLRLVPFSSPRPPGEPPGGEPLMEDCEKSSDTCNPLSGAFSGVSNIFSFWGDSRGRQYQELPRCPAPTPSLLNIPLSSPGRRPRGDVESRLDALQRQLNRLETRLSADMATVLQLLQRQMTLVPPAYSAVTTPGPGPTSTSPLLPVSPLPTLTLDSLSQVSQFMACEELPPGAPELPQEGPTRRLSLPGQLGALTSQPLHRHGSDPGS
row,Compound,"hERG current change (%, negative = inhibition) at 10uM [%]"
1,CC(=O)c1ccc(-n2nnnc2SCC(=O)Nc2sc(C)c(C)c2C#N)cc1,2.43
2,CCOc1ccc(C(=O)NCc2cccnc2)cc1[N+](=O)[O-],-76
3,CCOC(=O)c1ccccc1NC(=O)Cc1sc(-c2cccnc2)nc1-c1ccc(C)cc1,12.7
4,Cc1nc2sc(C(c3ccco3)N3CCN(C(c4ccccc4)c4ccccc4)CC3)c(O)n2n1 (centres unmarked),-2.18
5,N#C/C(=C/c1ccc(O)c(O)c1)c1nc2ccccc2[nH]1,16.3
6,COc1cc(OC)cc(-c2nc3ccccc3c(=O)n2NC(=O)c2cccnc2Cl)c1,21.5
7,Cc1[nH]nc(SCC(=O)N2CCCCCC2)c1[N+](=O)[O-],3.4
8,O=C(NCc1ccccc1)c1ccc(Oc2ccc(C(=O)NCc3ccccc3)cc2)cc1,-3.44
9,COc1ccccc1NC(=O)c1cccc(NC(=O)c2ccco2)c1,-16.1
10,CCN(CC)CCOC(=O)c1ccc([N+](=O)[O-])cc1.Cl,-23.1
11,CCOC(=O)N1CCN(C(=O)c2ccc3c(=O)n(CCc4ccc(OC)c(OC)c4)c(=O)[nH]c3c2)CC1,17
12,O=C(CN(C1CCCCC1)C1CCCCC1)N1CCc2ccccc2C1.O=C(O)C(=O)O,-25.2
13,CC1CCCN(c2cc3c(cc2[N+](=O)[O-])C(=O)N(c2ccccc2)C3=O)C1 (centres unmarked),15.2
14,Cc1ccc(S(=O)(=O)Cc2ccc(C(=O)NCc3ccc4c(c3)OCO4)o2)cc1,-23.2
15,COc1cccc(C(=O)N2CCN(C(=O)c3ccc(-c4ccccc4)cc3)CC2)c1OC,-26
16,COC(=O)c1ccc2[nH]c(C(C)(C)O)c(C)c2c1,12.1
17,Cc1c(C(=O)Nc2ccc(Cl)cc2)c2ccccn2c1C(=O)c1ccc([N+](=O)[O-])cc1,-6.62
18,CC(Oc1ccc2c3c(c(=O)oc2c1)CCC3)C(=O)NCCCn1ccnc1 (centres unmarked),14.6
19,O=C1[C@H]2[C@@H](/C=C/c3ccccc3)N3C(=O)CN(CCO)C(=O)[C@@]3(Cc3ccccc3)[C@H]2C(=O)N1c1ccccc1,27.7
20,O=C(c1ccccc1)c1ccc(C(=O)N2CCCC(C(F)(F)F)C2)cc1 (centres unmarked),-6.03
21,COc1ccccc1S(=O)(=O)N1CCN(S(=O)(=O)c2cccs2)CC1,5.24
22,CC(=O)Nc1ccc(S(=O)(=O)N(C)CC(=O)OCC(=O)NNC(=O)c2ccccc2F)cc1,11.8

row,Compound,"hERG current change (%, negative = inhibition) at 10uM [%]"
1,COc1cc(CNCC(C)C)cc(Br)c1OCC(=O)Nc1ccccc1.Cl,-24.4
2,Cc1nn(C)cc1CNC(=O)Nc1cccc(Cl)c1,1.45
3,Cc1cccc2nc(COc3ccc(-c4ccccc4)cc3)cn12,-6.63
4,C[C@H](NC(=O)c1nc[nH]c1C(=O)NCCCCC[NH3+])C(=O)OCc1ccccc1.[Cl-],8.35
5,COc1ccccc1NC(=O)CC1C(=O)NCCN1C(=O)Nc1ccccc1 (centres unmarked),-3.9
6,NC(=O)CC(NC(=O)Cc1cccc2ccccc12)c1ccc(NCc2ccccn2)c([N+](=O)[O-])c1 (centres unmarked),10.1
7,COc1ccc(Cn2c(=O)[nH]c3cc(C(=O)NCCCN4CCCCC4)ccc3c2=O)cc1,-26.5
8,COc1ccc(C=O)cc1Cn1ccnc1.Cl,11.2
9,Cc1ccc2nc(Nc3ccccc3)c(/C=N/O)c(=O)n2c1,-2.04
10,O=C(O)c1cc2c(cc1Br)OCCCO2,-0.348
11,Cc1cc2c(cc1C)C(=O)NC(C)(C)C2,8.73
12,Cc1ccc(S(=O)(=O)N2CCOCC2)cc1C(=O)OC(C)C(=O)NC1CCCC1 (centres unmarked),-5.68
13,Cc1ccc2nc(N3CCC(C(=O)O)CC3)nc(-c3ccccc3)c2c1,-1.95
14,O=C(CCS(=O)(=O)c1ccc(Cl)cc1)N1CCN(S(=O)(=O)c2cccs2)CC1,-28.3
15,CN(C)c1ccc(NC(=O)CSc2nnc(-c3ccco3)c(-c3ccco3)n2)cc1,6.58
16,CCCCC(=O)Nc1ccccc1CC,-5.37
17,CCCn1cc2c(c1-c1cccc(C)c1)c(=O)n(C)c(=O)n2C,-4.1
18,CCCCNC(C(=O)Nc1ccc(Cl)c([N+](=O)[O-])c1)c1ccccc1.O=C(O)C(=O)O (centres unmarked),-2.78
19,CCC(C)NC(=O)c1ccccc1NS(=O)(=O)c1ccc(OC)c(OC)c1 (centres unmarked),11
20,CCCn1c2ccccc2c2cnn(CC(=O)NCCN(CC)CC)c(=O)c21,-66.6
21,Cc1ccn2c(=O)nc(SCC(=O)N3CCCc4ccccc43)nc2c1,-5.03
22,COc1ccc(C(=O)CSc2nnc(-c3ccc(C)cc3)o2)cc1,-0.0747

row,Compound,"hERG current change (%, negative = inhibition) at 10uM [%]"
1,O=C(O)CCn1c(SCCOc2ccccc2)nc2ccccc21,10.7
2,CCCN1C(=O)C2C(C(=O)Nc3cccc(OC)c3)C3C=CC2(O3)C1C(=O)NC1CCCCC1 (centres unmarked),8.31
3,CCSc1nc2c(c(=O)n(C)c(=O)n2C)n1Cc1ccc(Cl)cc1,-17.5
4,O=C(Cn1c(=O)c2sccc2n(Cc2cccc([N+](=O)[O-])c2)c1=O)NCCc1ccccc1,-19.4
5,Cc1ccc(S(=O)(=O)NCCC(=O)Nc2cccc(Cl)c2)cc1,4.65
6,NC(=S)N1OC[C@@H]2COc3ccc4ccccc4c3[C@@H]21,4.27
7,COc1ccc(CC(=O)Nc2ccc(C(=O)O)cc2NC(=O)Cc2ccc(OC)cc2)cc1,14
8,Cc1noc(C)c1COC(=O)COc1ccc2c(C)cc(=O)oc2c1,-7.08
9,O=C(CCNS(=O)(=O)c1cccc2nsnc12)NCc1cccs1,0.101
10,CNC(=O)N(O)C1N(c2ccccc2)C(=S)SC1(C)C (centres unmarked),11.6
11,Cc1ccccc1Cn1c2ccccc2c2cnn(CC(=O)NCc3ccccn3)c(=O)c21,18.1
12,Cc1nc2nc(SCC(=O)c3ccccc3)[nH]c2cc1Br,8.98
13,COc1ccc(-c2csc(-c3[nH]cnc3N)n2)cc1,-17.7
14,Cc1ccnc(NC(=O)c2cc3ccccc3oc2=O)c1,8.47
15,CCN1CCN(c2cc(C)c3cc(NC(=S)N4CCCC(C)C4)ccc3n2)CC1 (centres unmarked),-51.3
16,O=C(CCN1C(=O)c2ccccc2C1=O)Nc1cc(F)ccc1F,0.799
17,COC(=O)c1ccc2c(=O)[nH]c(COC(=O)c3c(-c4ccccc4)noc3C)nc2c1,-1.82
18,COc1ccc(C(=O)NNC(=O)C(=O)NCc2ccccc2)cc1,13.8
19,COCCNC(=S)N1CCN(Cc2ccc3c(c2)OCO3)CC1,5.87
20,CCn1cnc2c(oc3ccccc32)c1=O,18.3
21,Cc1cccc(NC(=O)CSc2n[nH]c(-c3ccncc3)n2)c1,-0.573
22,COc1cc(C(=O)O)ccc1OCc1ccncc1,14.1

row,Compound,"hERG current change (%, negative = inhibition) at 10uM [%]"
1,Cc1c(C=O)c2ccccc2n1CCOc1ccccc1F,6.67
2,CCOC(=O)N1CCC(NC(=O)c2ccc(CS(=O)c3cccc(C)c3)o2)CC1 (centres unmarked),8.06
3,O=S(=O)(Cc1ccccc1)Nc1ccccc1Br,17.3
4,O=C1C=C(/C=C/c2ccccc2)C[C@@H](c2ccc3c(c2)OCO3)C1,20
5,Cc1ccc(C(=O)OCC(=O)NCc2cccs2)cc1S(=O)(=O)N1CCOCC1,-4
6,O=C(COC(=O)c1ccc(Cl)nc1)NNC(=O)c1ccc(Br)cc1,-0.746
7,Cc1ccnc(NC(=O)CNC(=O)c2ccc(Br)o2)c1,-2.64
8,O=C(COc1ccc(F)cc1)Nc1cc(S(=O)(=O)N2CCCCC2)ccc1N1CCCCC1,9.98
9,COc1ccc(CCNC(=O)c2cc(-c3ccco3)on2)cc1OC,-15
10,S=C(CN1CCCC1=S)N1CCOCC1,17.3
11,Cc1occc1C(=O)NCc1ccccc1,9.94
12,COc1ccc(C2(O)CCN(C(=O)c3c(F)cccc3F)CC2)cc1,-2.18
13,COc1ccccc1N1CCN(C/C(C)=C/c2ccccc2)CC1,-63.4
14,O=c1c2c(-c3ccc([N+](=O)[O-])cc3)csc2nc2n1CCC2,-77.6
15,COc1ccc(OC)c(S(=O)(=O)n2nnc3cc(Cl)ccc32)c1,4.31
16,CS(=O)(=O)N1CCN(C(=O)Cc2ccccc2Cl)CC1,14.7
17,CC(=O)Nc1ccc(S(=O)(=O)NCC(=O)OCC(=O)N2CCc3ccccc32)cc1,8.99
18,CN(C)/C=C/C(=O)c1cccc(C(F)(F)F)c1,-0.664
19,O=C(Nc1ccccc1F)c1ccc(CSc2ccccc2)o1,0.17
20,COc1ccc(C(=O)Nc2ccc(S(=O)(=O)Nc3cc(C)nc(C)n3)cc2)c(OC)c1,-0.751
